According to PubChem BioAssay AID2546 (National Center for Advancing Translational Sciences (NCATS), 2010):
The whole screen tested about 310,000 compounds, of which about 11,000 (3.5%) were called active. The shares of active, inactive and inconclusive entries below differ from those in the screen. Calls come from the whole dose curve; as a rule, active = well fitted inhibition curve with a large enough effect; inconclusive = small, poorly fitted or top-dose-only effect, or effect the other way; inactive = flat fitted curve, though single readings scatter. Potencies of inconclusive entries are left out as doubtful fits.

Experiment: VP16 counterscreen qHTS for inhibitors of ROR gamma transcriptional activity;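 note: Gal4-VP16 expression switched on by copper sulfate through the metallothionein promoter; nearly all actives have a fitted effect of over 50% in size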
Settings: Drosophila S2 Gal4-VP16 UAS-luciferase, luminescence, 20 h; series mostly up to 53.6 µM
Potency is the fitted concentration of half-maximal effect; tags give direction and shape of the fitted curve.

| SMILES | Potency |
| --- | --- |
| Cc1ccc(C(C(=O)NC2CCCCC2)N(CC2CCCO2)C(=O)CNC(=O)c2cccs2)cc1 (stereo not drawn) | inactive |
| CC(C)(C)NC(=S)N1CCC(C(=O)c2ccc(F)cc2)CC1 | inactive |
| CCOc1ccc2nc(SCc3ccccc3C#N)sc2c1 | inconclusive [inhibitor, single point] |
| CCOC(=O)C1CCCN(CC(=O)/C=C2/N(C)c3ccccc3C2(C)C)C1 (stereo not drawn) | inconclusive [inhibitor, single point] |
| Fc1ccc(NC(=S)NNc2ncc(C(F)(F)F)cc2Cl)c(F)c1 | inconclusive [inhibitor, single point] |
| C/C(=N\NC(=O)c1ccc2c(c1)OCO2)c1ccco1 | inconclusive [inhibitor, single point] |
| O=C(CNS(=O)(=O)c1ccccc1)Nc1ccc(C(F)(F)F)cc1 | inconclusive [inhibitor, single point] |
| O=C(NCCc1c[nH]c2ccccc12)C(=O)NCC(c1cccnc1)N1CCN(c2ccccc2)CC1 (stereo not drawn) | inconclusive [inhibitor, single point] |
| N#C/C(C(N)=O)=c1/ccc2c(c1)N1C3=C(CCCC3)CC3CCCCC31N=2 (stereo not drawn) | inconclusive [inhibitor, single point] |
| CCN(CC(=O)Nc1cccc(F)c1)Cc1nc2ccccc2c(=O)[nH]1 | inconclusive [inhibitor, single point] |
| CC12CN3CC(C)(CN(C1)C3c1ccccc1F)C2 (stereo not drawn) | inactive |
| COC(=O)c1ccc(NC(=S)NC2CCc3ccccc32)cc1 (stereo not drawn) | inconclusive [inhibitor, single point] |
| Cc1ccc(C(=O)Oc2ccc(/C=C3\C(=N)N4N=C(N5CCOCC5)SC4=NC3=O)cc2)cc1 | active: 12.6 µM |
| CN(Cc1c(C(=O)N2CCc3ccccc3C2)nc2ccc(Cl)cn12)C(C1CC1)C1CC1 | inactive |
| Cc1ccc(S(=O)(=O)c2nc(NN(C)C)sc2Cl)cc1 | inactive |
| COc1ccc(C)cc1NC(=O)c1cccc(C(=O)Nc2cc(C)ccc2OC)c1 | inactive |
| N#CC(C#N)=C1C=CC=CN1/C(=C\c1ccccc1Cl)C(=O)c1ccccc1 | active: 3.16 µM |
| O=C(CCN1C(=O)C2C3C=CC(C4CC34)C2C1=O)Oc1cccc2cccnc12 (stereo not drawn) | active: 7.94 µM |
| O=C(Nc1nnc(-c2ccccc2)o1)c1ccc(Cl)cc1 | active: 1.41 µM |
| c1cc2cn[nH]c2cc1NC1CCCCCC1 | inconclusive [inhibitor, single point] |
| Cc1ccc(N2N=C(c3ccc(F)cc3)CC2c2ccco2)cc1 (stereo not drawn) | inconclusive [activator, full curve, poor fit] |
| COc1ccc(NC2CCCN(C(=O)CCC(=O)c3ccc(F)cc3)C2)cc1 (stereo not drawn) | inconclusive [activator, single point] |
| CC(C)N=C1NN=C(c2ccc(F)cc2)CS1 | inconclusive [inhibitor, single point] |
| CN(C)c1ccc(N/C=C/C(=O)c2ccco2)cc1 | active: 11.2 µM |

| SMILES | Potency |
| --- | --- |
| Cc1ccc(/C=N/Nc2nc(C(C)(C)C)cs2)o1 | inactive |
| CCc1ccc(C2CC(c3ccco3)=NN2S(C)(=O)=O)cc1 (stereo not drawn) | inactive |
| CCOC(=O)C1CCN(C(=O)CCc2c(C)nc3cc(-c4ccccc4)nn3c2C)CC1 | inactive |
| O=C(Nc1nccs1)c1cccc(N2C(=O)c3cccc4c([N+](=O)[O-])ccc(c34)C2=O)c1 | active: 7.08 µM |
| Cc1ccc(C(=O)CSc2ccccn2)cc1 | inconclusive [inhibitor, partial curve] |
| CN1C(=O)/C(=C/c2ccccc2OCc2cccc(F)c2)NC1=S | active: 3.16 µM |
| COc1cc(C(=O)OCC(=O)Nc2cc(C)on2)ccc1OCc1ccccc1Cl | inconclusive [inhibitor, partial curve, poor fit] |
| CC(=O)c1cccc2c(O)c(C3=Nc4ccccc4C3=O)[nH]c12 | inconclusive [inhibitor, single point] |
| Cc1ccc(NC2=C(NC(=O)c3ccccc3)C(=O)c3ccccc3C2=O)cc1Cl | inconclusive [inhibitor, single point] |
| COCCNC(=S)NNC(=O)c1cc(-c2cccnc2)nc2ccccc12 | inconclusive [inhibitor, partial curve] |
| c1ccc(-c2csc3ncnc(NCc4ccccn4)c23)cc1 | inconclusive [inhibitor, single point] |
| Cc1cc(C)n2nc(SCC(=O)c3ccccc3)nc2n1 | inactive |
| Cc1nc2ccccc2cc1OCc1ccc(F)cc1 | active: 6.31 µM |
| CCOC(=O)c1ccc(NC(=S)N2CCSC2c2ccc(Br)cc2)cc1 (stereo not drawn) | inconclusive [inhibitor, single point] |
| Cc1ccc(NC(=O)CNC(=O)N2CC(=O)Nc3ccccc32)cc1F | inactive |
| Cc1ccc(S(=O)(=O)c2cc3ccccc3oc2=Nc2ccc3c(c2)OCCO3)cc1 | inactive |
| CN(CCC#N)C(=O)CC(Cc1ccccc1)C1CCOC(C)(C)C1 (stereo not drawn) | inactive |
| CCCCc1ccc(-c2ccc(Br)cc2O)nc1 | inconclusive [inhibitor, partial curve] |
| O=C(O)CCCCCNc1nc(=S)[nH]c2ccccc12 | inconclusive [inhibitor, partial curve] |
| Cc1cc2ncn(CC3CC3(Cl)Cl)c2cc1C (stereo not drawn) | inconclusive [inhibitor, single point] |
| C[C@@H](NC(=O)c1nc[nH]c1C(=O)NCC(=O)OC(C)(C)C)c1ccccc1 | inconclusive [inhibitor, single point] |
| C[n+]1c2n(c3ccccc31)N=C(c1ccc(-c3ccccc3)cc1)CS2 | inconclusive [inhibitor, single point] |
| Cc1cccc(CNc2nc(-c3c(C)noc3C)nc3ccccc23)c1 | inactive |
| CCn1nc(C)c(CNC(=O)c2ccc(OC3CCN(Cc4ccccn4)CC3)cc2)c1C | active: 7.08 µM |
